No constants are given. Whether binding was seen depends on the method and setting. For some of these results: In cells and extracts the contact can be indirect. Some entries that bind do so weakly or less than the wild type.
Assays:
FLAG-FUS (in HeLa cells) = FLAG-FUS (in HeLa cells) (UniProt P35637); assay: proximity ligation; HeLa cells transfected with FLAG-FUS or FLAG-FUS P525L; intact cells
[1] = molecular target: FLAG-FUS P525L (in HeLa cells) (UniProt P35637); assay: as above
eGFP-FUS P525L [2] = molecular target: eGFP-FUS P525L (UniProt P35637); assay: co-IP; non-LLPS conditions: eGFP-FUS captured from HEK293T lysate by anti-GFP nanobodies on magnetic beads; 75 mM HEPES pH7.3, 100 mM KOAc, 0.5 mM DTT, 0.5% NP40, RNase inhibitor; 3 h at 4°C; 5 washes in 2x lysis buffer; western blot
[3] = molecular target: eGFP-GSG15-FUS (wild type eGFP-FUS) (UniProt P35637); assay: as above
eGFP-FUS P525L [4] = molecular target: eGFP-FUS P525L (UniProt P35637); assay: purification of formaldehyde-stabilised FUS droplets by fluorescence-activated particle sorting, western blot; LLPS conditions: HEK293T lysate concentrated about 2-fold, eGFP-FUS droplets stabilised with 0.1% formaldehyde for 8 min at room temperature, sorted by eGFP fluorescence and side scatter, pelleted and washed in PBS; western blot
[5] = molecular target: eGFP-GSG15-FUS (wild type eGFP-FUS) (UniProt P35637); assay: as above
[6] = molecular target: FLAG-tagged FUS P525L (in 293T cells) (UniProt P35637); assay: condition: only without in situ DSP/DTME crosslinking; co-IP; immunoprecipitation from total extracts of 293T cells transfected with FLAG-tagged FUS P525L; uncrosslinked sample
[7] = molecular target: FLAG-tagged FUS P525L (in 293T cells) (UniProt P35637); assay: co-IP; in situ DSP/DTME crosslinking of 293T cells transfected with FLAG-tagged FUS P525L, then immunoprecipitation from total extracts; crosslinked sample

Chains of the proteins cited; added tags and fusions are not shown. Lines headed by an entry give the natural chain unless they say otherwise; changes in a name come on top.
UniProt P35637: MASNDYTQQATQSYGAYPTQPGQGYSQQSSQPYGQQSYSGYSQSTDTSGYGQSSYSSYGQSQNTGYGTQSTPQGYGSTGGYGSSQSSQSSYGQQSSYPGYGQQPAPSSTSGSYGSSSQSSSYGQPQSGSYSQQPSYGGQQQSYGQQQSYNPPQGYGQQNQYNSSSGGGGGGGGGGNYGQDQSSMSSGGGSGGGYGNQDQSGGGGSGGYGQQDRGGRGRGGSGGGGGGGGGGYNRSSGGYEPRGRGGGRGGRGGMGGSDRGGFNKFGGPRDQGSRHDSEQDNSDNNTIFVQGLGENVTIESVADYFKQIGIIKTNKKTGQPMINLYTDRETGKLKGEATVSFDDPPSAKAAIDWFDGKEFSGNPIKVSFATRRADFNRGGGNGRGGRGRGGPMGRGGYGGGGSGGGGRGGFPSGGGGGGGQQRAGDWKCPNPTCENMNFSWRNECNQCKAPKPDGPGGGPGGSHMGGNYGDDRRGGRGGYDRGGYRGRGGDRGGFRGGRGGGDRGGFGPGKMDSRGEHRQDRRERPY
UniProt Q16630: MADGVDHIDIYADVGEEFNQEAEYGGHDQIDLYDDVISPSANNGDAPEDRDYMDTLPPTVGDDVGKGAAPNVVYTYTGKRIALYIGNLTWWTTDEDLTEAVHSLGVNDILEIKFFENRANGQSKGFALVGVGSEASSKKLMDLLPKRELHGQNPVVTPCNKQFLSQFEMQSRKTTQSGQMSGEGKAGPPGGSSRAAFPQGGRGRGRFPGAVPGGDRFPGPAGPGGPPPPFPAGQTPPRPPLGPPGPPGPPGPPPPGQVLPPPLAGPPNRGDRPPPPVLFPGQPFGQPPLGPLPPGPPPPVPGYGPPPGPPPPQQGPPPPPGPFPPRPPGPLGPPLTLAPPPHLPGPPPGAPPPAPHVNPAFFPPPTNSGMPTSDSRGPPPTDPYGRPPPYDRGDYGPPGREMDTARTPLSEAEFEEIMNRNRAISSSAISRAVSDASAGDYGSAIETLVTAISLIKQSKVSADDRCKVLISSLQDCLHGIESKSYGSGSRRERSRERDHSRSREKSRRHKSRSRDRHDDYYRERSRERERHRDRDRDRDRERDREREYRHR
UniProt P21796: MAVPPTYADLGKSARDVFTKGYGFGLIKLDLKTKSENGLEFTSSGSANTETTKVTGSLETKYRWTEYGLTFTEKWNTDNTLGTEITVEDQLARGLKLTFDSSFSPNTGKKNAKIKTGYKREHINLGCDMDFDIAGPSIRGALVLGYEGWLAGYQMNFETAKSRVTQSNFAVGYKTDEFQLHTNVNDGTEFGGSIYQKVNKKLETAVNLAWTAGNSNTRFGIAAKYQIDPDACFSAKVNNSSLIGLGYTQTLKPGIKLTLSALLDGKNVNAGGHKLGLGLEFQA
UniProt P51532: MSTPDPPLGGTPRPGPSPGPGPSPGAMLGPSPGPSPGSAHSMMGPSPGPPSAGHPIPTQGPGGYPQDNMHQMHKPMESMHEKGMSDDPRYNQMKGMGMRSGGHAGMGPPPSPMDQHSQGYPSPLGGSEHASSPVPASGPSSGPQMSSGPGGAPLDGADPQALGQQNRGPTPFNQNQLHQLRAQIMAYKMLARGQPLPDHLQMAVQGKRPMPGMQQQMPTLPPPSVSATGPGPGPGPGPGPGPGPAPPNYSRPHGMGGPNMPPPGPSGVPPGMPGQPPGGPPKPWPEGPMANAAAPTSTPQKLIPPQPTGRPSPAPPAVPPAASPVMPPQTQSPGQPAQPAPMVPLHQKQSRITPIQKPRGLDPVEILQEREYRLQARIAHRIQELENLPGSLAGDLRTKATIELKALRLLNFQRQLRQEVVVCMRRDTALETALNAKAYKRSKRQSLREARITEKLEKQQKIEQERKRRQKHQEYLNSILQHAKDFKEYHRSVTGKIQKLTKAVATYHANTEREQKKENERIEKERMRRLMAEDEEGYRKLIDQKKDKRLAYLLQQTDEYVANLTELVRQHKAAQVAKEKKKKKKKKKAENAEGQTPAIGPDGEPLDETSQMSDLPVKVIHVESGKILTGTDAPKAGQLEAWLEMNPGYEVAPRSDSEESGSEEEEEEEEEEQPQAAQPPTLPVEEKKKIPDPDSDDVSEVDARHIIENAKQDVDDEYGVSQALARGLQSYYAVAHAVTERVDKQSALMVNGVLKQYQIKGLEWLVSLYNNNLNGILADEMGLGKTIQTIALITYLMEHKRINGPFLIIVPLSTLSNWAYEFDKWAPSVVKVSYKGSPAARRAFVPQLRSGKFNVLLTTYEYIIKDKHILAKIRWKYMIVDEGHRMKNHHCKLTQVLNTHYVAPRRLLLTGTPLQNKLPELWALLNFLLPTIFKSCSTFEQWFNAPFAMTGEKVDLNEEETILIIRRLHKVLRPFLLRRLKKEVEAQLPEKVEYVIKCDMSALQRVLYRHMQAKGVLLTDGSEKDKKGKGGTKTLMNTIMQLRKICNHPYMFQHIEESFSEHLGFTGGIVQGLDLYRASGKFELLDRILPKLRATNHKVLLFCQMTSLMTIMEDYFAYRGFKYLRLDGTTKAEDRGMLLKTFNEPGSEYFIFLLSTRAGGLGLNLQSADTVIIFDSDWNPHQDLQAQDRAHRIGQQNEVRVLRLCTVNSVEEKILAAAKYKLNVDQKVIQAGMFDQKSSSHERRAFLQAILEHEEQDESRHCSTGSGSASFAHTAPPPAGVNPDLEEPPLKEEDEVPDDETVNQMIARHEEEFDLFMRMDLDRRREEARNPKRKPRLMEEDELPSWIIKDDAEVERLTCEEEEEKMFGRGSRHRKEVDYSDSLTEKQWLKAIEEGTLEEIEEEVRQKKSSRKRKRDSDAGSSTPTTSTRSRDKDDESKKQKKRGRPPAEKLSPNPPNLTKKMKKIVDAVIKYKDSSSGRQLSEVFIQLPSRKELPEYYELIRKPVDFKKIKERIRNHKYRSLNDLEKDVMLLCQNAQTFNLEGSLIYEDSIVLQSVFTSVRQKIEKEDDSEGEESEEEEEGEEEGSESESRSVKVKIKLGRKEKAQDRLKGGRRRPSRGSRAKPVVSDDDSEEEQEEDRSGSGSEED
UniProt Q15388: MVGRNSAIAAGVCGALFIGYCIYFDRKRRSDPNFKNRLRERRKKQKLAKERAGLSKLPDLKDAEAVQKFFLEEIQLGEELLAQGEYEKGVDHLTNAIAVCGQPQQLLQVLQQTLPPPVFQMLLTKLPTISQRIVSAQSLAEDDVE

| binding (FLAG-FUS (in HeLa cells)) | binding [1] | binding (eGFP-FUS P525L [4]) | binding [5] | binding [6] | binding [7] | Substance | binding (eGFP-FUS P525L [2]) | binding [3] |
| --- | --- | --- | --- | --- | --- | --- | --- | --- |
| binds | binds | – | – | – | – | CPSF6 (in HeLa cells) (from UniProt Q16630 1-551) | – | – |
| binds | binds | – | – | – | – | VDAC1 (in HeLa cells) (from UniProt P21796 1-283) | – | – |
| – | – | binds | binds | – | – | VDAC1 (from UniProt P21796 1-283) | no binding (condition: non-LLPS conditions) | no binding (condition: non-LLPS conditions) |
| – | – | binds | binds | – | – | CPSF6 (from UniProt Q16630 1-551) | no binding (condition: non-LLPS conditions) | no binding (condition: non-LLPS conditions) |
| – | – | binds | binds | – | – | SMARCA4 (from UniProt P51532 1-1647) | no binding (condition: non-LLPS conditions) | no binding (condition: non-LLPS conditions) |
| – | – | – | – | no binding | binds | hnRNP K (from UniProt P61978 1-463) | – | – |
| binds | binds | – | – | – | – | SMARCA4 (in HeLa cells) (from UniProt P51532 1-1647) | – | – |
| – | – | binds | binds | no binding | binds | TOM-20 (from UniProt Q15388 1-145) | no binding (condition: non-LLPS conditions) | no binding (condition: non-LLPS conditions) |
| binds | binds | – | – | – | – | TOM-20 (in HeLa cells) (from UniProt Q15388 1-145) | – | – |
